# Some of the results follow.
# Tested on: PfAP2-HC AP2 domain (GST-tagged)
# Experiment: gcPBM binding intensity (ln(normalized median fluorescence intensity)); higher = stronger DNA binding
# Outline: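 Alexa488 anti-GST antibody, scanned at 488 nm, detected GST-tagged P. falciparum DNA-binding domains that had been expressed in E. coli and incubated for 1 h on an Agilent 4 × 180k array. The array carried primer-extended double-stranded 36-bp intergenic genomic probes and negative controls. Binding intensity is the highest Masliner-normalised natural-log median intensity across replicate spots of either orientation of each probe.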
row,Sequence,gcPBM binding intensity (ln)
1,TGCGGAAATAAGTGCACACATAGATATATGTATTTT [CACACA_site3689],9.82
2,ATATTATATATGTATAGTACATATTATAAGAAAAAT [XGTACX_site3457],9.86
3,ATCTATATCTATAATACACACATCATAAAATATGTA [CACACA_site7230],9.73
4,ATATATATTAATAATGCATGTGATATAAATTAATAT [TGCATGCA_site930],9.75
5,ATTTTATATATGTGTTGTACGGTGAACATTTTGATA [XGTACX_site6538],9.68
6,ATATGTATAAATATAAATATATATATATATATATAT [CACACA_negctrl_site705],9.78
7,ACGTTAATATCTACAAGTACCCACATTAACAGGAAA [XGTACX_site2616],9.67
8,AAAAAAAACAGACACACACACATTCAATATAAAACA [CACACA_site41],11.3
9,ATATCTTATATTATCACACACACACCCACAAAACAG [CACACA_site1464],11.5
10,ATGATATGGATAAATACACACAATATAATAATGGGT [CACACA_site4905],10.1
11,TATATAAACATCGGTAGTACACACATTCATGTATTT [XGTACX_site6443],9.88
12,GGATCATTTTTAAAGGAACACACAAAAAAAATTATA [CACACA_site8381],9.71
13,ATAAATATGGCAGTACGTACGTATATTCATATTCAT [XGTACX_site8042],9.75
14,ATTAAAAAAAAAAAAAAAAAACAAAAAAAAAAAAAA [CACACA_negctrl_site1187],8.67
15,TTTTTTTTTTTTTTTTGTACATATACATATATATAT [XGTACX_site1981],9.67
16,AGTAGCAAATATTAAGTGCATATTATATAATGTGTA [GTGCAC_site9546],9.72
17,GGTTTACCCTATAAATGTACTCATAAATTATATATA [XGTACX_site5771],9.32
18,ATACGAAATAGAAACACACATACAATAAATAAATAT [CACACA_site2017],10.5
19,TGTTCAGTATGGCACACACACAACAAAATAAAAAAA [CACACA_site4368],10.7

row,Sequence,gcPBM binding intensity (ln)
1,ATGGATTATTTTTAAACATGCAGTAGTGATGAAAAA [TGCATGCA_site346],9.68
2,AAAAAAAACATACATACACACACATAAATATATATA [CACACA_site8864],11.4
3,GTTCTTTCAAATTATACACACCAAAAAAAAAAAAAA [CACACA_site5660],9.51
4,TGATCAAGTAAGAAAAGTACAAAAAAAGTAAAAAAT [XGTACX_site6529],9.73
5,ATAAGTTTTTATTTTCTGCACTGTCGAATAATAGTT,9.61
6,GCGTGTGTACAATGAGTGCATATCTAAAGGGAAGAT,10.1
7,GATATGTTTTATTATGTTGATGATAACAGGTAGTTT [CACACA_negctrl_site356],9.68
8,AAAAAATATATATATATATATATGTAATATTTTTTT [XGTACX_negctrl_site439],9.58
9,TGGCAAAATAGGCACACACACATATACAGATATATT [CACACA_site4727],10.3
10,TCAATGAAATTAATATGTACATATTTTTATATAGTA [XGTACX_site7955],9.48
11,AAAACTATAAAAATTTTACACACTGTTTTTAAATAA [CACACA_site3667],9.57
12,TATATTATAATATTCACACACTAACGTAAATCATTG [CACACA_site7318],9.78
13,ATCTCTTACATATTCACACACATATAAATAACTACA [CACACA_site6816],9.96
14,ATTAATAATTATTATGGTACACATGTAACTACTCTC [XGTACX_site198],9.71
15,ATATGATAGTTTATATGTACATAAATAAATACATAC [XGTACX_site2917],9.88
16,AAAGAAAAAAAATAATGTACATATGTATTTGAGAAA [XGTACX_site3571],9.92
17,TTCTAAAATTATATAGTGCAATTATTTTATTTTTCT,9.59
18,AAAAAAATAAAACACATACATATATGTATATATATA [GTGCAC_negctrl_site390],9.76
19,TAAATATATATATAAGTGCATTATATATATATATAA,9.63

row,Sequence,gcPBM binding intensity (ln)
1,CTATATAAAAAAATTGCACACATAAATATATACATA [CACACA_site8325],9.8
2,ATAAATCCCAAAACCTTGCAAGACAACGTTTGATCA [CACACA_negctrl_site1327],9.44
3,TGTAGAAGAACCCATGCATGCAGTATGAAAAAAAAA [TGCATGCA_site907],9.53
4,AAAAAAAGAAAAAAACGTACATGAAAATTTTTTGTT [XGTACX_site5135],9.69
5,TTATGTATTTATTTATGTACTAATTGTATGCATATT [XGTACX_site6436],9.81
6,CATATACATAGACACACACACACATAAATAAATATA [CACACA_site6749],10.4
7,ATACTTTATAAATACTAAAGTGTATTTTGTAATATA [CACACA_negctrl_site1710],9.43
8,ATTTGTATATATAATTGTACGCATATTCTATACGAT [XGTACX_site7367],9.73
9,TAAGTGATCGCATAATGTACATATTATTTATTATTT [XGTACX_site3061],9.75
10,TACATTTAAAAAAAAACACACATATTTATATTTATA [CACACA_site7236],9.52
11,GGAAGGATATAACATACACACACACCCATATATATA [CACACA_site9376],10.3
12,ATAAATATGGAGCACACACACATAAACATACAGATA [CACACA_site4395],10.5
13,TACTTTCACATTAAATGTACGTATAGTTTCATTCTT [XGTACX_site8528],9.82
14,ATATTAAAAATATATACACACATATATATAAATATA [CACACA_site2257],9.87
15,TATATTTAAGTACATAAATAAGCCCATTTACATACA [CACACA_negctrl_site1224],9.37
16,TTTGGAGAATTCATAGTGCATTTATTTATTGTTAAT,9.6
17,ACGTTAGGCTTATTTGCACACTTGTATTATAATTTT [CACACA_site1317],10
18,AAAAATATGAAAGTAACTAAGTTGTTATTGATAACA [CACACA_negctrl_site1608],9.57
19,ATATTATCACAAGGTGGTACACAAAAAAAAAAAAAA [XGTACX_site8224],9.52
